PubChem BioAssay AID1963576 (National Center for Advancing Translational Sciences (NCATS), 2024)
Out of some 46,000 compounds screened, about 60 (0.1%) were called active. Inconclusive results (about 3%) are left out. Calls follow the shape of the dose curve; as a rule, active = well fitted inhibition curve with a large enough effect; inconclusive = small, poorly fitted or top-dose-only effect; inactive = no such curve, though single readings can be large or run the other way. The list shows a part of the results.

experiment: Primary qHTS assay for Inhibitors of ovarian cancer metastasis using an organotypic tumor microenvironment (TME) model.; also: nearly all actives have a fitted effect of over 65% in size;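 as to activity change, negative = inhibition: plate controls were DMSO wells for no effect and tomatine positive control wells for full effect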; details: SKOV3ip1-GFP adhesion/invasion on 3D omental model, fluorescence; series mostly up to 45.8 µM; activity change, negative = inhibition: at the top concentration
How it was run: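 Adhesion/invasion was scored as fixed GFP-labeled SKOV3ip1 cell counts (488/509 nm), normalized to DMSO and tomatine controls. Cancer cells in serum-free medium, with four compound doses (0.36-46 umol/L), sat 2 hr at RT then 16 hr at 37 C on a 48 hr fibroblast/mesothelial/ECM culture.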

outcome, inactive:
COc1cc(-c2nnc(SCC(=O)Oc3ccc(C)cc3C)o2)cc(OC)c1OC
COc1ccc(NC(=O)CN(c2ccccc2OC)S(C)(=O)=O)c(OC)c1
COc1ccc(C2=C(C)C(=O)N(Cc3ccc(C(=O)Nc4ccc(C)c(C)c4)cc3)S2(=O)=O)cc1
Cn1c(=O)cc(OCC(=O)N2CCN(c3ccc(F)cc3)CC2)c2ccccc21
O=S(=O)(c1ccccc1)c1nc(-c2ccccc2)oc1N1CCN(c2cccc(Cl)c2)CC1
Cc1c(Cl)cccc1NC(=O)C(C)N(c1ccccc1)S(C)(=O)=O (stereo not given)
COc1cccc(NC(=O)C2CCN(c3cc(C)nc4c(-c5ccc(Cl)cc5)c(C)nn34)CC2)c1
Cc1cc(-c2ccc(S(=O)(=O)Nc3cccc(Cl)c3C)cc2)on1
CCOc1ccccc1-c1nc(C(N)=O)c2c(n1)n(-c1ccc3c(c1)OCO3)c(=O)n2C
COc1ccc(C)cc1NC(=O)Cc1c(C(=O)O)c(C)cn1C
COCCNc1ccc(-c2nc(-c3ccccn3)no2)cc1[N+](=O)[O-]

Activity change, negative = inhibition, inactive:
CCOC(=O)C1(C)C=C(Nc2cccc(C)c2)C(=O)N1c1ccccc1 (stereo not given) -20.4%
Cc1cc(C)cc(NC(=O)CCCn2nc(C)c3c(C)n(-c4ccccc4)nc3c2=O)c1 -9.77%
COc1cc(NC(=O)CCc2c(C)nc3c4c(C)cc(C)nc4nn3c2C)cc(OC)c1 6.64%
COC(=O)c1ccc(Nc2ncnc3c2cnn3-c2ccccc2)cc1 6.64%
COc1cc(Cl)c(C)cc1NS(=O)(=O)c1c(C)nc2sccn2c1=O 1.34%
CCOC(=O)CCn1cnc2onc(-c3ccccc3Cl)c2c1=O -7.51%
COc1cc(OC)cc(-c2cc3nc(C)c(CCC(=O)Nc4ccc(F)c(Cl)c4)c(C)n3n2)c1 -3.39%
O=C1c2[nH]nc(-c3ccccc3O)c2C(c2ccc(Cl)cc2)N1CCc1ccccc1 (stereo not given) -6.32%
CC(C)c1ccc(NC(=O)C(NS(=O)(=O)c2ccc3c(c2)CCC(=O)N3)c2ccccc2)cc1 (stereo not given) 2.46%
CCOc1ccccc1Nc1ncnc2c1c(-c1ccccc1)cn2-c1ccc(OC)cc1 -5.75%
CCOCN(C(=O)Cn1c(CC(C)C)nc2ccccc21)c1c(C)cccc1CC 2.47%
O=C(CSCc1cnn(-c2ccccc2)c1-n1cccc1)NCc1ccccc1Br 0.114%
CCc1ccc(NC(=O)COCc2cc(-c3ccc(F)cc3)on2)cc1 0.621%
Cc1ccc(-c2cn3cccnc3n2)cc1NC(=O)Cc1ccccc1 -1.68%
Cc1cc(C)cc(NC(=O)c2ncn(-c3ccccc3)n2)c1 6.14%
Cc1ccc(-c2nn3c(=O)cc(CN4CCN(S(=O)(=O)c5ccc(Cl)cc5)CC4)nc3s2)cc1 7.58%
COc1ccc(CNC(=O)c2ccc3c(c2)CCN3S(=O)(=O)c2ccc(Cl)cc2)cc1 11.1%
O=C(COc1ccc(F)cc1)NC1CC(=O)N(c2ccc3c(c2)OCCO3)C1 (stereo not given) 5.54%
CCOC(=O)c1c(C)[nH]c(C)c1S(=O)(=O)N1CCN(c2ccc(Cl)cc2)CC1 9.58%
CC(=O)N1c2ccc(S(=O)(=O)NCC3CCC(C(=O)Nc4ccc(F)cc4)CC3)cc2CC1C (stereo not given) -2.62%
CCc1ccccc1-n1c2c(cc(-c3nc(-c4ccc(Cl)cc4)cs3)c1=O)C(=O)CC(C)(C)C2 -3.03%
COc1ccc(Cc2nc3ccc(C(=O)NCCc4ccccc4)cc3o2)cc1 -8.54%
CC(=O)Nc1ccc(NC(=O)Cn2c(=O)ccc3cc(S(=O)(=O)N4CCC(C)CC4)ccc32)cc1 -22.5%
CC(NC(=O)C1=Cc2ccccc2OC1)c1ccccc1 (stereo not given) 1.3%
COc1cc2nc(SCC(=O)Nc3cccc(C)c3)n3nc(CCn4c(C)nc5ccccc54)nc3c2cc1OC 3.34%
CCOc1ccc(OCC)c(NS(=O)(=O)c2ccc3[nH]c(=O)ccc3c2)c1 -2.27%
COC[C@@H](c1ccc(C(F)(F)F)cc1)N1CCN(C2(C)CCN(C(=O)c3c(C)ncnc3C)CC2)C[C@H]1C 0.598%
CCOc1ccc(NC(=O)CN(C)S(=O)(=O)c2ccc3[nH]c4c(c3c2)CCCC4)cc1 5.82%
COc1ccc(C(=O)N2CCN(c3nc4c(C)c(Cl)ccc4s3)CC2)c(OC)c1 -3.42%
CCC(C(=O)NCCc1ccc(Cl)cc1)n1ccc2cc(S(=O)(=O)N3CCCCC3)ccc21 (stereo not given) -11.2%
COc1ccc(CCNC(=O)C(=O)NCC(c2cccnc2)N2CCN(c3ccccc3)CC2)cc1 (stereo not given) 2.97%
CCc1ccc(CNC(=O)c2ccc(CS(=O)(=O)Cc3cccc(C)c3)o2)cc1 4.19%
O=C(NCc1ccc(Cl)cc1)c1ccc2c(c1)N(Cc1ccccc1F)C(=O)c1ccccc1S2=O (stereo not given) 6.01%
Cc1ccc(NC(=O)Cn2c(=O)ccc3cc(S(=O)(=O)N4CCCC4)ccc32)cc1N(C)C -12.1%
O=C(c1ccc(Cl)cc1)c1cn(Cc2ccccc2)c2cc3c(cc2c1=O)OCCO3 -0.887%
Cc1cc(C(=O)Nc2cccc(C)c2C)c2c(C)nn(-c3cccc(F)c3)c2n1 7.34%
COc1ccc(N(C)C(=O)c2cc3c(s2)-c2ccccc2OC3)cc1 -12.6%
CCCCNc1nc2c(c(=O)n(Cc3ccccc3)c(=O)n2C)n1C 13.2%
Cc1ccc(NC(=O)C2CCCN(S(=O)(=O)c3ccc4c(c3)CCCC(=O)N4)C2)cc1Cl (stereo not given) -9.46%
COc1cccc(-c2ccc3c(N)c(C(=O)Nc4ccccc4C)sc3n2)c1 -27.4%
COc1cccc(NC(=O)CCN2CCN(CCO)CC2)c1 1.41%
CCCCNC(=O)c1ccc2c(c1)NC(=O)C(CS(=O)(=O)Cc1ccc(F)cc1Cl)N2 (stereo not given) 2.36%
O=C(NCc1ccco1)c1ccc2c(c1)N(Cc1ccccc1F)C(=O)c1ccccc1S2(=O)=O 6.39%
CCn1c(=O)cc(SCC(=O)NCc2ccc(C)cc2)c2ccccc21 -10.1%
CC(=O)Nc1ccc(S(=O)(=O)N(Cc2ccccc2)Cc2ccccc2)cc1 9.12%
Nc1ccc2oc(Cc3ccc(Cl)cc3)nc2c1 -9.21%
CCCC(=O)Nc1ccc2nc(SCc3ccc(C)cc3)sc2c1 -2.98%
CC(C)CCNC(=O)c1ccc2c(c1)nc1n2CCCCC1 -3.26%
CC(=O)[C@H]1CC[C@H]2[C@@H]3CCC4=CC(=O)CC[C@]4(C)[C@H]3CC[C@]12C -1.92%
